Columns and labels:
[1] = biological target: T1, CFP purified from human serum (human, UniProt P27918 28-469); experiment: SPR
T1 sequence: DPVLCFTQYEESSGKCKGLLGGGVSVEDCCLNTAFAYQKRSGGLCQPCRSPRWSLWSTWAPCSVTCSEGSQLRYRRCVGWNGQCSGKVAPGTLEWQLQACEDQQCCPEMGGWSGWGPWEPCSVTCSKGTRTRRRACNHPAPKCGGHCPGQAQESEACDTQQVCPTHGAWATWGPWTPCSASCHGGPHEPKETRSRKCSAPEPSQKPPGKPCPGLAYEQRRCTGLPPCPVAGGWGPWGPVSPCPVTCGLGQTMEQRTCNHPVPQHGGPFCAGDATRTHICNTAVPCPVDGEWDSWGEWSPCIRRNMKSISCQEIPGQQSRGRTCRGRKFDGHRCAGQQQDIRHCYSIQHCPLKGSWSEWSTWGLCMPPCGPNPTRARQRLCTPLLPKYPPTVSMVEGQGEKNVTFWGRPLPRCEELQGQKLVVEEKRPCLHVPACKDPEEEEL

[2] = biological target: T2, recombinant human HIS-tagged CFP (human, UniProt P27918 28-469); experiment: SPR
T2 sequence: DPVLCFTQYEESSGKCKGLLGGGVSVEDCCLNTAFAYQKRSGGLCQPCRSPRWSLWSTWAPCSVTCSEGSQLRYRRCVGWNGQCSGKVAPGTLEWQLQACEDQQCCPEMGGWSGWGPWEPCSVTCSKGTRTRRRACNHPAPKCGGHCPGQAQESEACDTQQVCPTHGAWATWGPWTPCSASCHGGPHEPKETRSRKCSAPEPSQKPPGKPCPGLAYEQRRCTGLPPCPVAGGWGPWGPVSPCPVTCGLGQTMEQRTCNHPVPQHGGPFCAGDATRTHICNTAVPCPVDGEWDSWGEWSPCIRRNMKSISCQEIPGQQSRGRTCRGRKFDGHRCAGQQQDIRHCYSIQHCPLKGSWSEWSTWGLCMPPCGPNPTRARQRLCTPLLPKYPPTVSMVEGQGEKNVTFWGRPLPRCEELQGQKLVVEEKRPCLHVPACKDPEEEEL

binding result [1]: binds
binding result [2]: binds
B1: human NKp46-Fc (Fc fusion)
chain: QQQTLPKPFIWAEPHFMVPKEKQVTICCQGNYGAVEYQLHFEGSLFAVDRPKPPERINKVQFYIPDMNSRMAGQYSCIYRVGELWSEPSNLLDLVVTEMYDTPTLSVHPGPEVISGEKVTFYCRLDTATSMFLLLKEGRSSHVQRGYGKVQAEFPLGPVTTAHRGTYRCFGSYNNHAWSFPSEPVKLLVTGDIENTSLAPEDPTFPADTWGTYLLTTETGLQKDHALWDHTAQN

— publication PMC5419422 (Science immunology, 2017)
